# Laboratory results: the supplement of paper PMC8728848
# Some of the results follow.
# B1: BT3172pd (Bacteroides thetaiotaomicron) (protein)
# chain: MLPLRAEHYYYKQISLKEGLPSNVRCILRDEQGFIWIGTKAGLGKFDGHQLKRYKHQANDPHSLLHNLIYQIAEDKQHNIWILTEKGIARYQQQSNNFTFPTDEEGNYITAYSFCLVPDGILFGGKDRIYKYSYKDSSLRLLQYFNANSFKITALSVWDSKTLLCCSRWTGLYLVDLQTGEHRRPPFDCGPEITSMITDSKNRIWIAPYSGGLRCYSRDGKLSASYTTHNSSLSNDIVLSLAEREEQLWIGTDGGGINILHPETGEISQLEYIPGRENYSLPANSILCLHNDYNNNVWAGSTCNGLISIREVSMKTYTDVVPGNDRGLSNGTVRSLYRQSPDSIWIGTDGGGINLFSPHTEKFTHYSSTWGDKVAFISGFTPGKLLISLFSKGVFVFNPATGEKQPFTIIDKETTTRLCNRGKSVNLYQNTPNTVLFLGDHIYQYHLKEKKFSTITEEEGKDIVGTLVPFDHQENLTYINDIKHIYELDDQTSRLKTVFECYTDTVISSVSHDEQGHFWIGSNFGLIHYDPVLKSRTLVPTNLFTEINMVLCDQKGKVWIGVDNMLFAYFIKEQKFVLFGESNGAIQNEYLPNARLVNEQGDAYIGGVKGMLRIDGQLLLNTSEMPELQLLDITINGESANHEWYNHPAKISVPWNSNISIRIMSREEDIFRQKIYRYQIEGLNNEYTESYNPELVIRSLLPGSYRIMASCTAKDGSWIPDQQVLELTVLPPWYRTHHHHHH
# Columns and labels:
# Test in all cases: glycan array binding signal (z-score within array); higher = stronger binding
# Settings in all cases: glycan notation: IUPAC condensed, linker removed
# [1] = target: Fuc(a1-2)[Gal(a1-3)]Gal(b1-4)GlcNAc(b1-2)Man(a1-3)[Fuc(a1-2)[Gal(a1-3)]Gal(b1-4)GlcNAc(b1-2)Man(a1-6)]Man(b1-4)GlcNAc(b1-4)[Fuc(a1-6)]GlcNAc
# Outline: (§1)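 Negative Z-scores can be read as non-binding. The Z-score is calculated within each array and then averaged across arrays of one protein sequence at different concentrations or buffers and across linkers. Arrays, 3228 in all, were curated from the Consortium for Functional Glycomics database and kept only where the protein sequence was available.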
# [2] = target: Fuc(a1-2)[Gal(a1-3)]Gal(b1-4)GlcNAc(b1-3)GalNAc
# Outline: as §1
# [3] = target: Fuc(a1-2)[Gal(a1-3)]Gal(b1-4)GlcNAc(b1-3)[Fuc(a1-2)[Gal(a1-3)]Gal(b1-4)GlcNAc(b1-6)]GalNAc
# Outline: as §1
# [4] = target: Fuc(a1-2)[Gal(a1-3)]Gal(b1-4)GlcNAc(b1-6)GalNAc
# Outline: as §1
# [5] = target: Fuc(a1-2)[Gal(a1-3)]Gal(b1-4)[Fuc(a1-3)]Glc
# Outline: as §1
# [6] = target: Fuc(a1-2)[Gal(a1-3)]Gal(b1-4)[Fuc(a1-3)]GlcNAc
# Outline: as §1
# [7] = target: Fuc(a1-2)[Gal(a1-3)]Gal(b1-4)[Fuc(a1-3)]GlcNAc(b1-3)GalNAc
# Outline: as §1
# [8] = target: Fuc(a1-2)[Gal(a1-4)]Gal(b1-4)GlcNAc
# Outline: as §1
# [9] = target: Fuc(a1-2)[GalNAc(a1-3)]Gal
# Outline: as §1
# [10] = target: Fuc(a1-2)[GalNAc(a1-3)]Gal(b1-3)GalNAc(a1-3)[Fuc(a1-2)]Gal(b1-4)GlcNAc
# Outline: as §1
# [11] = target: Fuc(a1-2)[GalNAc(a1-3)]Gal(b1-3)GalNAc(b1-3)Gal(a1-4)Gal(b1-4)Glc
# Outline: as §1
# [12] = target: Fuc(a1-2)[GalNAc(a1-3)]Gal(b1-3)GlcNAc
# Outline: as §1
# [13] = target: Fuc(a1-2)[GalNAc(a1-3)]Gal(b1-3)GlcNAc(b1-2)Man(a1-3)[Fuc(a1-2)[GalNAc(a1-3)]Gal(b1-3)GlcNAc(b1-2)Man(a1-6)]Man(b1-4)GlcNAc(b1-4)GlcNAc
# Outline: as §1
# [14] = target: Fuc(a1-2)[GalNAc(a1-3)]Gal(b1-3)GlcNAc(b1-2)Man(a1-3)[Fuc(a1-2)[GalNAc(a1-3)]Gal(b1-3)GlcNAc(b1-2)Man(a1-6)]Man(b1-4)GlcNAc(b1-4)[Fuc(a1-6)]GlcNAc
# Outline: as §1
# [15] = target: Fuc(a1-2)[GalNAc(a1-3)]Gal(b1-3)GlcNAc(b1-3)GalNAc
# Outline: as §1
# [16] = target: Fuc(a1-2)[GalNAc(a1-3)]Gal(b1-3)GlcNAc(b1-6)GalNAc
# Outline: as §1
# [17] = target: Fuc(a1-2)[GalNAc(a1-3)]Gal(b1-4)Glc
# Outline: as §1
# [18] = target: Fuc(a1-2)[GalNAc(a1-3)]Gal(b1-4)GlcNAc
# Outline: as §1
# [19] = target: Fuc(a1-2)[GalNAc(a1-3)]Gal(b1-4)GlcNAc(b1-2)Man
# Outline: as §1
# [20] = target: Fuc(a1-2)[GalNAc(a1-3)]Gal(b1-4)GlcNAc(b1-2)Man(a1-3)[Fuc(a1-2)[GalNAc(a1-3)]Gal(b1-4)GlcNAc(b1-2)Man(a1-6)]Man(b1-4)GlcNAc(b1-4)GlcNAc
# Outline: as §1
# [21] = target: Fuc(a1-2)[GalNAc(a1-3)]Gal(b1-4)GlcNAc(b1-2)Man(a1-3)[Fuc(a1-2)[GalNAc(a1-3)]Gal(b1-4)GlcNAc(b1-2)Man(a1-6)]Man(b1-4)GlcNAc(b1-4)[Fuc(a1-6)]GlcNAc
# Outline: as §1
# [22] = target: Fuc(a1-2)[GalNAc(a1-3)]Gal(b1-4)GlcNAc(b1-3)Gal(b1-4)GlcNAc
# Outline: as §1
# [23] = target: Fuc(a1-2)[GalNAc(a1-3)]Gal(b1-4)GlcNAc(b1-3)Gal(b1-4)GlcNAc(b1-3)Gal(b1-4)GlcNAc
# Outline: as §1
# [24] = target: Fuc(a1-2)[GalNAc(a1-3)]Gal(b1-4)GlcNAc(b1-3)GalNAc
# Outline: as §1
# [25] = target: Fuc(a1-2)[GalNAc(a1-3)]Gal(b1-4)GlcNAc(b1-3)[Fuc(a1-2)[GalNAc(a1-3)]Gal(b1-4)GlcNAc(b1-6)]GalNAc
# Outline: as §1
# [26] = target: Fuc(a1-2)[GalNAc(a1-3)]Gal(b1-4)GlcNAc(b1-6)GalNAc
# Outline: as §1
# [27] = target: Fuc(a1-2)[GalNAc(a1-3)]Gal(b1-4)[Fuc(a1-3)]GlcNAc
# Outline: as §1
# [28] = target: Fuc(a1-2)[GalNAc(a1-3)]Gal(b1-4)[Fuc(a1-3)]GlcNAc(b1-3)GalNAc
# Outline: as §1
# [29] = target: Fuc(a1-2)[GalNAc(a1-4)]Gal(b1-4)GlcNAc
# Outline: as §1
# [30] = target: Fuc(a1-2)[GalNAc(b1-3)]Gal
# Outline: as §1
# [31] = target: Fuc(a1-3)GlcNAc
# Outline: as §1
# [32] = target: Fuc(a1-3)[Gal(b1-4)]Glc6S
# Outline: as §1
# [33] = target: Fuc(a1-3)[Gal(b1-4)]GlcNAc
# Outline: as §1
# [34] = target: Fuc(a1-3)[Gal(b1-4)]GlcNAc(b1-2)Man
# Outline: as §1
# [35] = target: Fuc(a1-3)[Gal(b1-4)]GlcNAc(b1-2)Man(a1-3)[Fuc(a1-3)[Gal(b1-4)]GlcNAc(b1-2)Man(a1-6)]Man(b1-4)GlcNAc(b1-4)GlcNAc
# Outline: as §1
# [36] = target: Fuc(a1-3)[Gal(b1-4)]GlcNAc(b1-2)Man(a1-3)[Fuc(a1-3)[Gal(b1-4)]GlcNAc(b1-2)Man(a1-6)]Man(b1-4)GlcNAc(b1-4)[Fuc(a1-6)]GlcNAc
# Outline: as §1
# [37] = target: Fuc(a1-3)[Gal(b1-4)]GlcNAc(b1-3)Gal(b1-3)[Fuc(a1-4)]GlcNAc
# Outline: as §1
# [38] = target: Fuc(a1-3)[Gal(b1-4)]GlcNAc(b1-3)Gal(b1-4)[Fuc(a1-3)]GlcNAc
# Outline: as §1
# [39] = target: Fuc(a1-3)[Gal(b1-4)]GlcNAc(b1-3)Gal(b1-4)[Fuc(a1-3)]GlcNAc(b1-3)Gal(b1-4)[Fuc(a1-3)]GlcNAc
# Outline: as §1
# [40] = target: Fuc(a1-3)[Gal(b1-4)]GlcNAc(b1-3)GalNAc
# Outline: as §1
# [41] = target: Fuc(a1-3)[Gal(b1-4)]GlcNAc(b1-6)GalNAc
# Outline: as §1
# [42] = target: Fuc(a1-3)[Gal(b1-4)]GlcNAc(b1-6)[Gal(b1-3)GlcNAc(b1-3)]Gal(b1-4)Glc
# Outline: as §1
# [43] = target: Fuc(a1-3)[Gal(b1-4)]GlcNAc6S
# Outline: as §1
# [44] = target: Fuc(a1-3)[Gal3S(b1-4)]Glc
# Outline: as §1
# [45] = target: Fuc(a1-3)[Gal3S(b1-4)]GlcNAc
# Outline: as §1
# [46] = target: Fuc(a1-3)[Gal3S(b1-4)]GlcNAc6S
# Outline: as §1
# [47] = target: Fuc(a1-3)[GalNAc(b1-4)]GlcNAc
# Outline: as §1
# [48] = target: Fuc(a1-3)[GalNAc(b1-4)]GlcNAc6S
# Outline: as §1
# [49] = target: Fuc(a1-4)GlcNAc
# Outline: as §1
# [50] = target: Fuc(b1-3)GlcNAc
# Outline: as §1
# [51] = target: Gal(a1-2)Gal
# Outline: as §1
# [52] = target: Gal(a1-3)Gal
# Outline: as §1
# [53] = target: Gal(a1-3)Gal(b1-3)GlcNAc
# Outline: as §1
# [54] = target: Gal(a1-3)Gal(b1-3)GlcNAc(b1-2)Man
# Outline: as §1
# [55] = target: Gal(a1-3)Gal(b1-3)GlcNAc(b1-2)Man(a1-3)[Gal(a1-3)Gal(b1-3)GlcNAc(b1-2)Man(a1-6)]Man(b1-4)GlcNAc(b1-4)GlcNAc
# Outline: as §1
# [56] = target: Gal(a1-3)Gal(b1-3)GlcNAc(b1-3)GalNAc
# Outline: as §1
# [57] = target: Gal(a1-3)Gal(b1-3)GlcNAc(b1-6)GalNAc
# Outline: as §1
# [58] = target: Gal(a1-3)Gal(b1-3)[Fuc(a1-4)]GlcNAc(b1-2)Man(a1-3)[Gal(a1-3)Gal(b1-3)[Fuc(a1-4)]GlcNAc(b1-2)Man(a1-6)]Man(b1-4)GlcNAc(b1-4)GlcNAc
# Outline: as §1
# [59] = target: Gal(a1-3)Gal(b1-4)Glc
# Outline: as §1
# [60] = target: Gal(a1-3)Gal(b1-4)GlcNAc
# Outline: as §1
binder,measurement,setting,value
B1,glycan array binding signal (z-score),[1],0.347
same,glycan array binding signal (z-score),[2],0.073
same,glycan array binding signal (z-score),[3],5.41
same,glycan array binding signal (z-score),[4],0.696
same,glycan array binding signal (z-score),[5],-0.351
same,glycan array binding signal (z-score),[6],-0.177
same,glycan array binding signal (z-score),[7],-0.194
same,glycan array binding signal (z-score),[8],-0.179
same,glycan array binding signal (z-score),[9],-0.426
same,glycan array binding signal (z-score),[10],-0.445
same,glycan array binding signal (z-score),[11],-0.219
same,glycan array binding signal (z-score),[12],-0.389
same,glycan array binding signal (z-score),[13],-0.51
same,glycan array binding signal (z-score),[14],-0.47
same,glycan array binding signal (z-score),[15],0.729
same,glycan array binding signal (z-score),[16],-0.21
same,glycan array binding signal (z-score),[17],-0.491
same,glycan array binding signal (z-score),[18],-0.511
same,glycan array binding signal (z-score),[19],-0.645
same,glycan array binding signal (z-score),[20],-0.17
same,glycan array binding signal (z-score),[21],-0.192
same,glycan array binding signal (z-score),[22],-0.68
same,glycan array binding signal (z-score),[23],-0.443
same,glycan array binding signal (z-score),[24],-0.142
same,glycan array binding signal (z-score),[25],-0.046
same,glycan array binding signal (z-score),[26],-0.622
same,glycan array binding signal (z-score),[27],-0.482
same,glycan array binding signal (z-score),[28],0.04
same,glycan array binding signal (z-score),[29],-0.521
same,glycan array binding signal (z-score),[30],-0.655
same,glycan array binding signal (z-score),[31],-0.076
same,glycan array binding signal (z-score),[32],0.702
same,glycan array binding signal (z-score),[33],0.622
same,glycan array binding signal (z-score),[34],-0.76
same,glycan array binding signal (z-score),[35],0.229
same,glycan array binding signal (z-score),[36],2.04
same,glycan array binding signal (z-score),[37],-0.542
same,glycan array binding signal (z-score),[38],-0.266
same,glycan array binding signal (z-score),[39],-0.472
same,glycan array binding signal (z-score),[40],0.349
same,glycan array binding signal (z-score),[41],-0.071
same,glycan array binding signal (z-score),[42],-0.978
same,glycan array binding signal (z-score),[43],0.918
same,glycan array binding signal (z-score),[44],0.036
same,glycan array binding signal (z-score),[45],-0.009
same,glycan array binding signal (z-score),[46],-0.205
same,glycan array binding signal (z-score),[47],0.074
same,glycan array binding signal (z-score),[48],-0.042
same,glycan array binding signal (z-score),[49],0.252
same,glycan array binding signal (z-score),[50],-0.336
same,glycan array binding signal (z-score),[51],-0.237
same,glycan array binding signal (z-score),[52],-0.624
same,glycan array binding signal (z-score),[53],-0.655
same,glycan array binding signal (z-score),[54],1.83
same,glycan array binding signal (z-score),[55],-0.542
same,glycan array binding signal (z-score),[56],0.41
same,glycan array binding signal (z-score),[57],-0.133
same,glycan array binding signal (z-score),[58],0.822
same,glycan array binding signal (z-score),[59],-0.327
same,glycan array binding signal (z-score),[60],-0.339
